# Source: the antibiotic and cytotoxicity screens of Wong et al. (2023)
# The other results are listed elsewhere or left out.
# Tested on: HepG2
# Assay: cytotoxicity call (relative viability < 0.9)
# Settings: 10 µM
row,Structure (SMILES),cytotoxicity call
1,Cc1noc(C)c1NC(=O)Nc1ccc2c(c1)CC(=O)N([C@@H](C)CO)C[C@@H](C)[C@@H](CN(C)CC1CC1)O2,inactive
2,C[C@H](CO)N1C[C@H](C)[C@H](CN(C)S(=O)(=O)c2ccc(Cl)cc2)Oc2c(NC(=O)c3ccc(-c4nccs4)cc3)cccc2C1=O,active
3,C[C@@H]1CCCCO[C@@H](CN(C)S(=O)(=O)c2ccc(F)cc2)[C@H](C)CN([C@H](C)CO)C(=O)c2cc(NC(=O)Nc3ccc4c(c3)OCO4)ccc2O1,inactive
4,O=c1ccn(C2OC(CO)C(O)C2O)c(=O)[nH]1 (stereo unspecified),inactive
5,C[C@@H]1CN([C@H](C)CO)C(=O)c2cccc(NC(=O)c3nc4ccccc4s3)c2O[C@H]1CN(C)C(=O)Nc1ccc(F)cc1,inactive
6,COc1ccc(NC(=O)Nc2cccc3c2O[C@@H](CN(C)CC2CCCCC2)[C@@H](C)CN([C@H](C)CO)C3=O)cc1,inactive

# Tested on: S. aureus RN4220
# Assay: growth inhibition call (relative growth <= 0.2)
# Settings: 50 µM
row,Structure (SMILES),growth inhibition call
1,C[C@H]1CN([C@@H](C)CO)C(=O)c2cccc(NC(=O)C3CCCCC3)c2O[C@H]1CN(C)Cc1ccc(Oc2ccccc2)cc1,inactive
2,CCS(=O)(=O)Nc1ccc2c(c1)C(=O)N(C)[C@H]1CC[C@@H](CC(=O)N[C@H]3CCN(Cc4ccccc4)C3)O[C@@H]1CO2,inactive
3,C[C@H]1CN([C@@H](C)CO)C(=O)c2cc(NS(=O)(=O)c3ccc(F)cc3)ccc2O[C@@H]1CN(C)S(=O)(=O)c1ccccc1,inactive
4,C[C@@H]1CCCCO[C@H](CN(C)C(=O)Nc2ccc(F)cc2)[C@@H](C)CN([C@@H](C)CO)C(=O)c2cc(NS(=O)(=O)c3cccs3)ccc2O1,inactive
5,C[C@@H]1CN([C@@H](C)CO)C(=O)c2cc(NS(=O)(=O)c3cn(C)cn3)ccc2O[C@H]1CN(C)CC1CC1,inactive
6,C[C@H](CO)N1C[C@H](C)[C@@H](CN(C)S(=O)(=O)c2cccs2)Oc2c(NC(=O)c3cnccn3)cccc2C1=O,inactive
7,O=C1O[C@@H](c2ccccc2)[C@@H](c2ccccc2)N2[C@@H](c3ccc(OCCO)cc3)[C@]3(C(=O)Nc4ccc(C#CC5(O)CCCCCC5)cc43)[C@@H](C(=O)N3CCCCCCC3)[C@H]12,inactive
8,COc1ccc(S(=O)(=O)Nc2ccc3c(c2)C(=O)N([C@@H](C)CO)C[C@@H](C)[C@H](CN(C)CC2CCCCC2)OCCCC[C@@H](C)O3)cc1,inactive
9,NNC(=O)c1cc(=S)nc[nH]1,inactive
10,COCC(=O)N(C)C[C@@H]1Oc2cc(C#CC(C)(C)O)ccc2S(=O)(=O)N([C@@H](C)CO)C[C@@H]1C,inactive
11,Oc1c(Cl)cc(Cl)c2cccnc12,inactive
12,C[C@H]1CN([C@@H](C)CO)S(=O)(=O)c2ccc(-c3ccccc3F)cc2O[C@H]1CN(C)S(C)(=O)=O,inactive
13,C[C@@H]1CCCCO[C@@H](CN(C)CC2CC2)[C@H](C)CN([C@@H](C)CO)C(=O)c2cc(NC(=O)Nc3cccc4ccccc34)ccc2O1,inactive
14,C[C@@H]1CN([C@@H](C)CO)C(=O)c2cc(NS(=O)(=O)c3ccccc3)ccc2O[C@@H]1CN(C)S(=O)(=O)c1ccc(F)cc1,inactive
15,COc1ccc(Nc2ccc(-c3ccncc3)s2)cc1Cl,inactive
16,C[C@@H]1CN([C@@H](C)CO)C(=O)Cc2cc(NC(=O)Nc3cccc4ccccc34)ccc2O[C@@H]1CN(C)Cc1ccc2c(c1)OCO2,inactive
17,C[C@H]1CN([C@@H](C)CO)C(=O)c2c(c3ccccc3n2C)-c2ccccc2CO[C@H]1CN(C)Cc1cccc2c1OCCCO2,inactive
18,C[C@@H]1CCCCO[C@H](CN(C)C(=O)c2ccncc2)[C@H](C)CN([C@H](C)CO)C(=O)c2cc(NS(=O)(=O)c3cn(C)cn3)ccc2O1,inactive
19,C[C@H](CO)N1C[C@H](C)[C@@H](CN(C)C(=O)Nc2ccc(C(F)(F)F)cc2)OCCCC[C@H](C)Oc2ccc(NS(=O)(=O)c3ccc(Cl)cc3)cc2C1=O,inactive
20,Cc1noc(C)c1NC(=O)N[C@H]1CC[C@@H](CC(=O)N2CCN(C)CC2)O[C@H]1CO,inactive

row,Structure (SMILES),growth inhibition call
1,C[C@@H]1CN([C@H](C)CO)S(=O)(=O)c2ccc(C#Cc3cccc(F)c3)cc2O[C@@H]1CN(C)S(=O)(=O)c1ccccc1F,inactive
2,COc1ccc2c(c1)n(CCN)c(=O)n2C(=O)[C@@H]1C[C@H](C)CC[C@H]1C(C)C,active
3,COc1ccc(S(=O)(=O)N[C@@H]2C=C[C@@H](CC(=O)NCCc3ccncc3)O[C@@H]2CO)cc1,inactive
4,C[C@@H]1CN([C@H](C)CO)C(=O)c2cccc(NS(=O)(=O)c3cn(C)cn3)c2O[C@@H]1CN(C)S(=O)(=O)c1ccc(Cl)cc1,inactive
5,COc1ccc(S(=O)(=O)N(C)C[C@@H]2Oc3ccc(NS(=O)(=O)c4cccs4)cc3C(=O)N([C@H](C)CO)C[C@@H]2C)cc1,inactive
6,O=C(CS(=O)(=O)c1cccc2nsnc12)N1CC(=O)N(CCc2ccccc2)C(=O)C1,inactive
7,COc1ccc(NC(=O)N(C)C[C@@H]2OCCCC[C@@H](C)Oc3ccc(NC(=O)CCC(F)(F)F)cc3C(=O)N([C@H](C)CO)C[C@H]2C)cc1,inactive
8,C[C@@H]1CN([C@@H](C)CO)C(=O)c2cccc(NS(=O)(=O)c3cccs3)c2O[C@@H]1CN(C)C(=O)Nc1cccc2ccccc12,inactive
9,C[C@H](CO)N1C[C@H](C)[C@H](CN(C)C(=O)Nc2cccc3ccccc23)OCCCC[C@H](C)Oc2ccc(NC(=O)Nc3ccc(C(F)(F)F)cc3)cc2C1=O,inactive
10,CCCC[C@@H](C)/C=C(C)/C=C(\C)C(=O)NC1=C[C@@](O)(/C=C/C=C/C=C/C(=O)NC2C(=O)CCC2=O)[C@@H]2O[C@@H]2C1=O,active
11,NCC[C@@H]1CC[C@@H](NC(=O)C2CC2)[C@H](CO)O1,inactive
12,CC(=O)N1C[C@@H]2C(=O)N(C)C3(CCN(S(=O)(=O)Cc4ccccc4)CC3)[C@H]2C1,inactive
13,COc1ccc(CN(C)C[C@H]2OCCCC[C@H](C)Oc3ccc(NC(=O)Nc4ccccc4)cc3C(=O)N([C@@H](C)CO)C[C@H]2C)cc1,inactive
14,C[C@H](CO)N1C[C@H](C)[C@@H](CN(C)C(=O)CCC(F)(F)F)OCc2ccccc2-c2c(n(C)c3ccccc23)C1=O,inactive
15,Cc1noc(C)c1NC(=O)Nc1ccc2c(c1)CC(=O)N([C@@H](C)CO)C[C@@H](C)[C@@H](CN(C)CC1CC1)O2,inactive
16,C[C@H](CO)N1C[C@H](C)[C@H](CN(C)S(=O)(=O)c2ccc(Cl)cc2)Oc2c(NC(=O)c3ccc(-c4nccs4)cc3)cccc2C1=O,inactive
17,C[C@@H]1CCCCO[C@@H](CN(C)S(=O)(=O)c2ccc(F)cc2)[C@H](C)CN([C@H](C)CO)C(=O)c2cc(NC(=O)Nc3ccc4c(c3)OCO4)ccc2O1,inactive
18,O=c1ccn(C2OC(CO)C(O)C2O)c(=O)[nH]1 (stereo unspecified),inactive
19,C[C@@H]1CN([C@H](C)CO)C(=O)c2cccc(NC(=O)c3nc4ccccc4s3)c2O[C@H]1CN(C)C(=O)Nc1ccc(F)cc1,inactive
20,COc1ccc(NC(=O)Nc2cccc3c2O[C@@H](CN(C)CC2CCCCC2)[C@@H](C)CN([C@H](C)CO)C3=O)cc1,inactive
